According to the supplement of paper PMC8728848:
The other results are listed elsewhere or left out.

Legend:
Assay in all cases: glycan array binding signal (z-score within array); higher = stronger binding
Settings in all cases: glycan notation: IUPAC condensed, linker removed
[1] = target: GlcNAc(a1-4)Gal(b1-3)GlcNAc
Summary of the method: (§1)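 Glycan array data came from 3228 arrays in the Consortium for Functional Glycomics database, and only arrays with an available protein sequence were kept. Glycan names were put into IUPAC-condensed notation, and columns mapping to the same glycan were averaged. The binding signal is a within-array Z-score, averaged across arrays of one protein sequence run at different concentrations or buffers and across linkers. A negative Z-score can be read as non-binding.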

[2] = target: GlcNAc(a1-4)Gal(b1-4)GalNAc
Summary of the method: as §1

[3] = target: GlcNAc(a1-4)Gal(b1-4)GlcNAc
Summary of the method: as §1

[4] = target: GlcNAc(a1-4)Gal(b1-4)GlcNAc(b1-3)Gal(b1-4)Glc
Summary of the method: as §1

[5] = target: GlcNAc(a1-4)Gal(b1-4)GlcNAc(b1-3)Gal(b1-4)GlcNAc
Summary of the method: as §1

[6] = target: GlcNAc(a1-4)Gal(b1-4)GlcNAc(b1-3)Gal(b1-4)GlcNAc(b1-3)Gal(b1-4)GlcNAc
Summary of the method: as §1

[7] = target: GlcNAc(a1-4)Gal(b1-4)GlcNAc(b1-3)Gal(b1-4)[Fuc(a1-3)]GlcNAc(b1-3)Gal(b1-4)[Fuc(a1-3)]GlcNAc
Summary of the method: as §1

[8] = target: GlcNAc(a1-6)Gal(b1-4)GlcNAc
Summary of the method: as §1

[9] = target: GlcNAc(b1-2)Gal(b1-3)GalNAc
Summary of the method: as §1

[10] = target: GlcNAc(b1-2)Man(a1-3)[GlcNAc(b1-2)Man(a1-6)]Man(b1-4)GlcNAc(b1-4)GlcNAc
Summary of the method: as §1

[11] = target: GlcNAc(b1-2)Man(a1-3)[GlcNAc(b1-2)Man(a1-6)]Man(b1-4)GlcNAc(b1-4)[Fuc(a1-6)]GlcNAc
Summary of the method: as §1

[12] = target: GlcNAc(b1-2)Man(a1-3)[GlcNAc(b1-4)][GlcNAc(b1-2)Man(a1-6)]Man(b1-4)GlcNAc(b1-4)GlcNAc
Summary of the method: as §1

[13] = target: GlcNAc(b1-2)Man(a1-3)[GlcNAc(b1-4)][GlcNAc(b1-2)Man(a1-6)]Man(b1-4)GlcNAc(b1-4)[Fuc(a1-6)]GlcNAc
Summary of the method: as §1

[14] = target: GlcNAc(b1-2)[GlcNAc(b1-4)]Man(a1-3)[GlcNAc(b1-2)Man(a1-6)]Man(b1-4)GlcNAc(b1-4)GlcNAc
Summary of the method: as §1

[15] = target: GlcNAc(b1-2)[GlcNAc(b1-4)]Man(a1-3)[GlcNAc(b1-4)][GlcNAc(b1-2)Man(a1-6)]Man(b1-4)GlcNAc(b1-4)GlcNAc
Summary of the method: as §1

[16] = target: GlcNAc(b1-2)[GlcNAc(b1-4)]Man(a1-3)[GlcNAc(b1-4)][GlcNAc(b1-2)[GlcNAc(b1-6)]Man(a1-6)]Man(b1-4)GlcNAc(b1-4)GlcNAc
Summary of the method: as §1

[17] = target: GlcNAc(b1-2)[GlcNAc(b1-4)]Man(a1-3)[GlcNAc(b1-4)][GlcNAc(b1-2)[GlcNAc(b1-6)]Man(a1-6)]Man(b1-4)GlcNAc(b1-4)[Fuc(a1-6)]GlcNAc
Summary of the method: as §1

[18] = target: GlcNAc(b1-2)[GlcNAc(b1-6)]Man(a1-6)[GlcNAc(b1-2)Man(a1-3)]Man(b1-4)GlcNAc(b1-4)GlcNAc
Summary of the method: as §1

[19] = target: GlcNAc(b1-2)[GlcNAc(b1-6)]Man(a1-6)[GlcNAc(b1-2)Man(a1-3)]Man(b1-4)GlcNAc(b1-4)[Fuc(a1-6)]GlcNAc
Summary of the method: as §1

B1: PV12658A-bvu-496-32-496 (Bacteroides vulgatus) (protein)
chain: DLDGAITTPAAVELALNGIYYSLPGNGFNVIFPTVSGSFKAGTMWRQEIVSAGNAVYYSERMLPTLSFSDATEWDADYAVIKNANFLETACNRMSDGEFSGNRRAEVLGEIAYLRALAYFNILVRYCEFWDMNSEYGVVMRNEAPSVSNALKARSSVADSYQYILDQLEIAIEKAPDWKKLSQASKEAAKALKARVLLYAGKYTEAVAAVNDAIDTNSPLPEANYGDVFDKFSTTKEILFARVFDQKDATNTSTRQQCYGNSPTKKQGYWGPTNEYVELVGDDPRADAIFSKVDSLMDSRSSAVAYNLKSVKKLLNDANDMPVIFSRVSELYLIKAEALYRSGASISEAYAPIRKLRERAGAEIILPANNEELETAIFNEWMLELSFENWHEWFAMIRFAGYTEKPDFTRLLALNKTLREALEKEYEKSEAQGDNYYQRIIDRRIDAIPSSEISSNLECKQNPGY
[1]
  glycan array binding signal (z-score): -0.345
[2]
  glycan array binding signal (z-score): -0.111
[3]
  glycan array binding signal (z-score): 0.968
[4]
  glycan array binding signal (z-score): 0.68
[5]
  glycan array binding signal (z-score): 3.04
[6]
  glycan array binding signal (z-score): 0.219
[7]
  glycan array binding signal (z-score): 0.093
[8]
  glycan array binding signal (z-score): -0.379
[9]
  glycan array binding signal (z-score): -0.342
[10]
  glycan array binding signal (z-score): -0.472
[11]
  glycan array binding signal (z-score): -0.488
[12]
  glycan array binding signal (z-score): -0.291
[13]
  glycan array binding signal (z-score): -0.235
[14]
  glycan array binding signal (z-score): 0.029
[15]
  glycan array binding signal (z-score): -0.125
[16]
  glycan array binding signal (z-score): -0.432
[17]
  glycan array binding signal (z-score): -0.461
[18]
  glycan array binding signal (z-score): -0.355
[19]
  glycan array binding signal (z-score): -0.193
